# Laboratory results published in the supplement of paper PMC3334620.
# Over roughly 33,000 sequences, “E-score (-0.5 to 0.5)” has its median near -0.035; the highest 2% begin near 0.35. The list shows a part of the results.
# Target: T1, Pdr3 (UniProt P33200)
# T1 sequence: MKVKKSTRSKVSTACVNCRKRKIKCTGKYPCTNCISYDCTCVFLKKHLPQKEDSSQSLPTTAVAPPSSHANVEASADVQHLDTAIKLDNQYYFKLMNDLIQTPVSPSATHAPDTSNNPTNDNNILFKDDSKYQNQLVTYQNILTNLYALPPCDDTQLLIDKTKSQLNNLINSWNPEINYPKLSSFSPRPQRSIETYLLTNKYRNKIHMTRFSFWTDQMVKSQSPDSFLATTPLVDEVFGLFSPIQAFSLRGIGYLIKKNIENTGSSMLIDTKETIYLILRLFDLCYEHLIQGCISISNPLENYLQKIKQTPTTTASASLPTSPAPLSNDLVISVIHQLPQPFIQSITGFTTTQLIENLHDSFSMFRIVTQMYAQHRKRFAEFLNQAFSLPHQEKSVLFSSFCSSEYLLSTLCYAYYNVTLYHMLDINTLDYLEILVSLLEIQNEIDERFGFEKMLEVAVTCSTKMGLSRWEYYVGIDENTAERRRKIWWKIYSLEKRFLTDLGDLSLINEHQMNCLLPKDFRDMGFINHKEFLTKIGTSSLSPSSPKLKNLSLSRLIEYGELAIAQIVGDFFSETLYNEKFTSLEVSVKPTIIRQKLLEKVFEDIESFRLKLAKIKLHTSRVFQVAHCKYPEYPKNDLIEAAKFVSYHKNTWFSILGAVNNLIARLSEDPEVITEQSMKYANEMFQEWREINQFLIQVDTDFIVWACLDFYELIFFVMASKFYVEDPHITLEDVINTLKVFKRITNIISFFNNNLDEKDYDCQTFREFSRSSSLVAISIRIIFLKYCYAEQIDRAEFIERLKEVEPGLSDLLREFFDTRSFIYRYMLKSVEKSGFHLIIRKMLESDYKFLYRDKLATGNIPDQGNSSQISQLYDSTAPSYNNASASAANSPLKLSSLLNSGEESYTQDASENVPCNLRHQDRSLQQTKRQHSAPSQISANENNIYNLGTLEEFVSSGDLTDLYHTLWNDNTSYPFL
# Experiment: PBM E-score (8-mer binding enrichment) (E-score (-0.5 to 0.5)); higher = stronger / more preferred TF binding; most listed sequences are background and not binding sites
# Details: protein concentration: 200 nM; construct: GST-full length
# Procedure, shortened: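 Masliner-normalised scans of fluorescent anti-GST signal were the basis for scoring. That signal came from GST-tagged yeast transcription factors applied at about 100-200 nM to double-stranded universal all-10-mer Agilent arrays on fresh or once-stripped slides. Each ungapped eight-base word, pooled with its reverse complement, received an E-score from the Universal PBM Analysis Suite.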
row,Sequence,PBM E-score
1,AGGCGAGA,-0.239
2,AGAATGAG,-0.14
3,AGAATCAC,0.112
4,CCACGTCG,0.031
5,GCTTACTA,-0.0891
6,ACAACGGG,0.221
7,CGACTAGA,-0.284
8,CCAGGCTA,-0.242
9,ACTCACCG,0.00845
10,CGGAATCC,0.461
11,CTCGTGCA,-0.016
12,CGCGATAC,0.178
13,AATCCATA,0.0673
14,GAAACCCA,0.12
15,CTTAACAA,-0.113
16,AGTCCCGG,0.347
17,AAAGCTCA,-0.213
18,AGACAATC,0.0204
19,ACAGATCG,-0.109
20,CTGCACGC,-0.191
21,AAGCCTAG,-0.191
22,TGAGACCA,-0.113
23,ATCTGTTG,-0.19
24,AGCTGCGG,0.133
25,GCGCTATA,-0.0583

row,Sequence,PBM E-score
1,CACGTTAA,-0.185
2,CCCGCGTA,0.157
3,TACCGGAA,0.44
4,CTCGGTAC,-0.072
5,CCCGACAA,0.281
6,CTAGGACC,-0.256
7,AGTAGAGA,-0.199
8,GAGCGGGC,0.113
9,AGGATGAA,-0.204
10,ATGGGCAC,0.032
11,GCGCTCAC,0.0758
12,ACAATGGG,0.121
13,CGTCTGTA,-0.14
14,AGTATAAA,0.217
15,CCCGTGCA,0.104
16,CCTCAGAG,-0.148
17,AGCCTTAG,-0.37
18,AGGTGTGC,-0.0606
19,ACATTATG,-0.0135
20,GATTGAAA,-0.0455
21,CTCACGAC,-0.0746
22,AAGGCTGG,-0.352
23,CCCAAAAG,-0.143
24,AGTGGAGA,-0.117
25,ATAGTGGC,-0.107

row,Sequence,PBM E-score
1,ATAGGGGG,-0.183
2,ACGACAGT,-0.19
3,AATACTCA,-0.0375
4,TACGCGCA,0.0833
5,AGTCTGGC,-0.171
6,CGAACATC,0.0578
7,GTCCCAGA,-0.271
8,TCTCGAGA,-0.111
9,AGGTCTAT,-0.0513
10,AGATCAAT,-0.0927
11,GCTTATAA,-0.0228
12,ACCGCAGA,-0.143
13,ACATGTTA,-0.0758
14,CTAGTATC,0.188
15,AACATACT,0.0104
16,CATAAGCA,-0.181
17,TAACACCA,-0.0859
18,CTATATGC,0.0111
19,CGACGCTA,-0.152
20,AGCCGAGG,0.163
21,AATTTGAA,0.05
22,GATCTAGC,-0.139
23,CCGATAAG,0.132
24,AGGCTATG,-0.213
25,CGTGATTA,0.0343

row,Sequence,PBM E-score
1,GAGTTAAC,-0.0893
2,CCAGGCGC,-0.0229
3,ACGACGAC,-0.11
4,GAACATCA,0.0015
5,GCTCGTCC,-0.0189
6,ATGTGTAA,-0.145
7,CAGTGCGC,-0.0956
8,CGTTGACC,-0.122
9,GAAGCATC,0.0724
10,CCAATGGA,-0.0405
11,CAGCTGGC,0.0297
12,CTTAACGC,-0.195
13,ACCCCAGG,-0.219
14,CTGGAACC,-0.00182
15,AACCAGCT,-0.206
16,AGTCAGAT,-0.213
17,ATACGAGC,-0.0573
18,CATACTGG,-0.0204
19,GTTCTGTA,-0.0301
20,ACTTCAGG,-0.0654
21,AGAACATA,0.077
22,AAGGAACG,0.00917
23,ATCATACG,-0.00908
24,AGCCGCCG,0.232
25,ATACTGAA,-0.0961

row,Sequence,PBM E-score
1,AACACCTG,-0.156
2,ATCCGGCC,0.403
3,CTTGACAC,-0.222
4,GCCCTATA,-0.0113
5,TAAAAAGA,-0.101
6,ACGTGCGC,0.0301
7,CAACGCCA,-0.123
8,TTCCCAAA,-0.0652
9,CATGCTGA,0.0243
10,ATTATATC,0.0149
11,GAGCCCAA,-0.0941
12,CATGCACC,-0.0886
13,CTCGAGTC,-0.0944
14,ATGGAGAC,-0.0549
15,CGGTATTC,0.18
16,AAAGTTAT,0.0193
17,CCAGATAG,-0.228
18,GGTATGAA,-0.116
19,GGGTTGCA,0.0143
20,AAGATTGC,0.0486
21,CTGCGTGA,-0.00693
22,AGCAAATA,-0.0908
23,GGCTCTAA,-0.0483
24,CAAGGGTC,0.0449
25,CGTAACGC,-0.0244

row,Sequence,PBM E-score
1,AGGTCAAG,-0.162
2,CCCGCTTA,0.00181
3,GCAGCTCC,0.144
4,CAGCCATG,-0.166
5,GTTGCGTA,-0.0271
6,CGAAATAC,0.151
7,AAGCTATA,-0.173
8,ATCTCGTA,-0.243
9,AACGGAGT,0.373
10,ACGTAAGC,-0.169
11,CGAGGTGC,0.207
12,GCTAGCTA,-0.199
13,GGTTAGAA,-0.283
14,TACTAGAA,-0.0849
15,CAGGCGAC,-0.102
16,AGTGTGGG,-0.0143
17,AGCAAAGG,-0.134
18,GGCGATTA,0.0397
19,AATGCTAA,-0.135
20,ACGCAGAG,-0.077
21,GGTTAAGA,-0.0956
22,GGTGAAAC,0.0534
23,TCAGATCA,-0.159
24,GTACGAGA,-0.0245
25,ACATGACC,-0.157

row,Sequence,PBM E-score
1,AGTAAGAC,-0.206
2,GAAACTCC,0.0961
3,CTTTTATC,0.05
4,ATTTCGAA,-0.0579
5,CTTGTCCC,0.19
6,GTAGTACA,-0.11
7,ATCACGAT,-0.0869
8,ACGCTAAG,-0.35
9,GGACAGGA,-0.126
10,ATCGAAGG,-0.0602
11,GTGTGAAA,0.127
12,AACTTGAG,-0.238
13,ATGTGCTA,-0.0352
14,AGTAACTC,0.00658
15,GTCCCACA,0.0823
16,CATCCACA,-0.0598
17,CGACCATC,0.0557
18,CTATCTGA,-0.22
19,GCCGTCGC,0.0748
20,ACGCTTTA,-0.233
21,TAATCTGA,-0.121
22,CGATTTCC,0.299
23,CAGGTCAC,-0.277
24,GGCAGATA,0.093
25,CCCACCGA,-0.0239

row,Sequence,PBM E-score
1,CGATGCCG,0.188
2,CCCATCCA,0.00501
3,CAAAGCAA,0.0611
4,CGAGCGGC,0.228
5,AGTCAGTC,-0.153
6,GAGCTAAC,0.0315
7,AATTCCGG,0.449
8,ACCCCAAT,-0.105
9,GCCGGCCA,0.302
10,ACTCAACC,-0.035
11,TATACTCA,-0.15
12,CCGAAGAA,0.173
13,ACGAACCC,0.122
14,GCCAAACC,0.0626
15,GTGAGACA,0.00796
16,ATCCTATC,0.0308
17,ATAGGAAA,-0.00732
18,AGTCCTTC,-0.21
19,ATAATTTC,0.182
20,GCTCCTCA,-0.236
21,AGTCAGTA,-0.109
22,ATGTCCGC,0.223
23,CTGTCTGA,-0.0812
24,TCTGTCAA,-0.168
25,CTCGTATC,-0.0772

row,Sequence,PBM E-score
1,CAACAGTC,-0.241
2,CGGTTTCC,0.268
3,AATCACGA,-0.0373
4,CCCTAGGA,-0.0471
5,AGGTACAT,-0.32
6,TTAGATAA,-0.189
7,CGTGCATA,-0.0353
8,GACATCGC,-0.0124
9,ATAAGGTG,-0.0163
10,ATGGTCCA,-0.203
11,TCGGACAA,0.297
12,GAATTATC,-0.00046
13,CACAAAAC,0.0928
14,CCCCATCC,0.144
15,CCTACATC,0.086
16,GCTCATCA,-0.0721
17,ACAGACAC,-0.0661
18,CGTGCTTA,0.0586
19,ACTATTCT,-0.045
